# Among all 200,000 compounds or so, about 4,500 (2.2%) were called active. Inconclusive means that the source gave no clear call. Such entries were picked first, then a sample of the others. The call rests on the fitted dose curve; in most records, active means well fitted inhibition curve with a large enough effect; inconclusive means small, poorly fitted or top-dose-only effect, or effect the other way; inactive means flat fitted curve, though single readings scatter. Where the call is inconclusive, the potency comes from a doubtful curve fit.
# Target: Cruzipain (Trypanosoma cruzi) (UniProt P25779)
# UniProt P25779, sequence (P25779 whole entry, looked up): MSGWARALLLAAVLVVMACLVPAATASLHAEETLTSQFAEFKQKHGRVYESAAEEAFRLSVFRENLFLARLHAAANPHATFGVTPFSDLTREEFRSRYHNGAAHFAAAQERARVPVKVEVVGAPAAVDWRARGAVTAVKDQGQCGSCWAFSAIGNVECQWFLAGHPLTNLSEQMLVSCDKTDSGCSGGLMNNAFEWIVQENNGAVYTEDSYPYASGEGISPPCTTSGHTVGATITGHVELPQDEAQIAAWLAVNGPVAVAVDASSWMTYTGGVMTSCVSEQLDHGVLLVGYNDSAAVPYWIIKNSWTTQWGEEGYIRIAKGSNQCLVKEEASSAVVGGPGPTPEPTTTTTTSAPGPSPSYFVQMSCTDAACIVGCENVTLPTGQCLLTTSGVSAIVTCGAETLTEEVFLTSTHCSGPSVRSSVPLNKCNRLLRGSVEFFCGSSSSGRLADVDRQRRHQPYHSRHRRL
# Test: qHTS Assay for Promiscuous and Specific Inhibitors of Cruzain (without detergent); further: nearly all actives have a fitted effect of over 40% in size;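 on max response, negative = inhibition: plate controls were enzyme without inhibitor for no effect and buffer without enzyme for full effect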
# Settings: purified cruzain, Z-FR-AMC fluorescence, no detergent
# Method in brief: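 Detergent-free condition (0.00005% Triton X-100) in acetate buffer pH 5.5 with DTT. 1.5 nM enzyme and compound were pre-mixed 15 min, then 2 uM Z-FR-AMC substrate added; reaction progress from fluorescence change between first and third reads (60 s).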
# Potency means the concentration at half of the fitted maximal effect; tags describe the fitted curve by direction and shape.
Structure (SMILES),Potency,"max response, negative = inhibition"
O=C(Nc1ccc2nn(-c3ccccc3)nc2c1)c1ccc2c(c1)OCCO2,"inconclusive: 31.6 µM [inhibitor, single point]",–
O=C(NCc1ccco1)c1ccc(Cn2c(=O)c3ccccc3n(Cc3cccc(F)c3)c2=O)cc1,"inconclusive: 31.6 µM [inhibitor, single point]",–
O=C(Nc1ccc2oc(-c3ccccc3)nc2c1)c1ccncc1,"inconclusive: 25.1 µM [activator, single point]",–
CCOC(=O)C(NC(=O)c1ccccc1OCC)(Nc1ncccn1)C(F)(F)F (stereo unspecified),"inconclusive: 25.1 µM [activator, single point]",–
CCOC(=O)COc1cccc2c(=O)n(CC(=O)NCCc3ccc(OC)c(OC)c3)ccc12,"inconclusive: 31.6 µM [activator, single point]",–
O=C(OCCCN=C1NS(=O)(=O)c2ccccc21)C1CC(=O)N(c2ccc(Cl)cc2)C1 (stereo unspecified),"inconclusive: 39.8 µM [activator, single point]",–
CCc1ccc(N2CC(C)Cn3c2nc2c3c(=O)n(CCN3CCOCC3)c(=O)n2C)cc1 (stereo unspecified),–,inactive: 7.77%
CCOc1ccc(C(c2c(C)[nH]n(-c3ccccc3)c2=O)c2c(C)[nH]n(-c3ccccc3)c2=O)cc1OC,"inconclusive: 31.6 µM [activator, single point]",–
COc1ccc2c(c1)-c1nc(NC(=O)c3cccs3)sc1CC2,"inconclusive: 25.1 µM [inhibitor, single point]",–
Cc1nc(N2CCOCC2)c2c(C(=O)N3CCN(c4ccc(Cl)cc4)CC3)c(C)oc2n1,"inconclusive: 39.8 µM [activator, single point]",–
C/C(=N\NC(=O)C1CC1c1ccccc1)c1cccc([N+](=O)[O-])c1 (stereo unspecified),"inconclusive: 39.8 µM [inhibitor, single point]",–
CC(C)(C)c1ccc(/C=C/C(=O)N2CCc3ccccc3C2)cc1,"inconclusive: 31.6 µM [inhibitor, single point]",–
COc1ccc(-c2ccc(NS(=O)(=O)c3ccccc3Cl)cc2)nn1,"inconclusive: 39.8 µM [inhibitor, single point]",–
O=C(COc1ncnc2c1cnn2-c1ccccc1)Nc1ccc(S(=O)(=O)N2CCCCC2)cc1,"inconclusive: 31.6 µM [inhibitor, single point]",–
O=C(Nc1ccccc1)Nc1nnc(CSCc2ccccc2Cl)s1,"inconclusive: 31.6 µM [inhibitor, single point]",–
O=C(CCn1cnc2onc(-c3ccc(F)cc3)c2c1=O)N1CCN(c2ccccc2)CC1,–,inactive: 29.7%

# From PubChem BioAssay AID1476 (National Center for Advancing Translational Sciences (NCATS), 2009)
